No constants are given. Whether binding was seen depends on the method and setting. Some results given as binding are weak or reduced against the parent protein; the word gives no strength. For part of these data: Tags and fused reporters may be left off the sequences shown.

Holding throughout (assay): two-hybrid; bacterial two-hybrid (BACTH): T18 and T25 fusions of CyaA co-expressed in E. coli BTH101; LB plates with X-Gal and 0.5 mM IPTG, up to 36 h at 28 °C; blue colonies indicate an interaction
Assay [1] has as its target T1, Fur, global regulator for iron homoeostasis (Bacillus subtilis) (UniProt P54574).
T1 sequence: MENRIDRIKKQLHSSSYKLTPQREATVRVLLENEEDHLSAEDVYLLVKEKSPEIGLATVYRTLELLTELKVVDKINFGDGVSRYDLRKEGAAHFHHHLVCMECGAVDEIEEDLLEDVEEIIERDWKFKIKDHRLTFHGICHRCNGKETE

Assay [2] deals with T2, Fpa (Fur protein antagonist), formerly YlaN (Bacillus subtilis) (UniProt O07638).
T2 sequence: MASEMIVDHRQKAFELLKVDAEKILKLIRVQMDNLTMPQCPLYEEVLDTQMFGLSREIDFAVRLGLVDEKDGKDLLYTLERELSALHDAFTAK

Assay [3] concerns the target mutant Fur (Fur*, K18A R23E Y60E) (Bacillus subtilis) (UniProt P54574).

B1: Fur, global regulator for iron homoeostasis (protein, UniProt P54574 1-149)
chain: MENRIDRIKKQLHSSSYKLTPQREATVRVLLENEEDHLSAEDVYLLVKEKSPEIGLATVYRTLELLTELKVVDKINFGDGVSRYDLRKEGAAHFHHHLVCMECGAVDEIEEDLLEDVEEIIERDWKFKIKDHRLTFHGICHRCNGKETE
B1: the binding result in assay [1] was “binds”.

B2: mutant Fur (Fur*, K18A R23E Y60E) (protein, UniProt P54574 1-149)
chain: MENRIDRIKKQLHSSSYALTPQEEATVRVLLENEEDHLSAEDVYLLVKEKSPEIGLATVERTLELLTELKVVDKINFGDGVSRYDLRKEGAAHFHHHLVCMECGAVDEIEEDLLEDVEEIIERDWKFKIKDHRLTFHGICHRCNGKETE
As to B2, the binding result was “binds” in assay [1], “no binding” in assay [2] and “binds” in assay [3].

B3: Fpa (Fur protein antagonist), formerly YlaN (protein, UniProt O07638 1-93)
chain: MASEMIVDHRQKAFELLKVDAEKILKLIRVQMDNLTMPQCPLYEEVLDTQMFGLSREIDFAVRLGLVDEKDGKDLLYTLERELSALHDAFTAK
As for B3, the binding entry in assay [1] and in assay [2] was “binds” throughout.

For the origin of these results see PMC11383924.
